Laboratory results: PubChem BioAssay AID504333 (National Center for Advancing Translational Sciences (NCATS), 2011)
Among all 360,000 compounds or so, about 16,000 (4.4%) were called active. Inconclusive means that the source gave no clear call. Such entries were picked first, then a sample of the others. Calls follow the shape of the dose curve; as a rule, active = well fitted inhibition curve with a large enough effect; inconclusive = small, poorly fitted or top-dose-only effect; inactive = no such curve, though single readings can be large or run the other way. Where the call is inconclusive, the potency comes from a doubtful curve fit.

target: Bromodomain adjacent to zinc finger domain protein 2B (Homo sapiens) (UniProt Q9UIF8); assay: qHTS Assay for Inhibitors of BAZ2B; conditions: AlphaScreen BAZ2B-H3K14Ac peptide displacement; activity change, negative = inhibition: at 114 µM (top of the series) unless noted; also: nearly all actives have a fitted effect of over 60% in size
Summary of the method: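 AlphaScreen displacement: compounds (up to 110uM) incubated 30 min at room temperature with a preformed 50 nM BAZ2B/50 nM biotinylated H3K14Ac peptide complex in PBS pH 7.4 with Tween-20. Donor and acceptor beads at 10 ug/mL final added, 20 min light-protected before reading.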
% is scaled to controls: 0 for no effect and ±100 for the full control effect; potency is read from the fitted curve at half-maximal effect; tags tell the direction and shape of the fitted curve.

UniProt Q9UIF8, sequence (Q9UIF8 whole entry, looked up, the tested form may be a part): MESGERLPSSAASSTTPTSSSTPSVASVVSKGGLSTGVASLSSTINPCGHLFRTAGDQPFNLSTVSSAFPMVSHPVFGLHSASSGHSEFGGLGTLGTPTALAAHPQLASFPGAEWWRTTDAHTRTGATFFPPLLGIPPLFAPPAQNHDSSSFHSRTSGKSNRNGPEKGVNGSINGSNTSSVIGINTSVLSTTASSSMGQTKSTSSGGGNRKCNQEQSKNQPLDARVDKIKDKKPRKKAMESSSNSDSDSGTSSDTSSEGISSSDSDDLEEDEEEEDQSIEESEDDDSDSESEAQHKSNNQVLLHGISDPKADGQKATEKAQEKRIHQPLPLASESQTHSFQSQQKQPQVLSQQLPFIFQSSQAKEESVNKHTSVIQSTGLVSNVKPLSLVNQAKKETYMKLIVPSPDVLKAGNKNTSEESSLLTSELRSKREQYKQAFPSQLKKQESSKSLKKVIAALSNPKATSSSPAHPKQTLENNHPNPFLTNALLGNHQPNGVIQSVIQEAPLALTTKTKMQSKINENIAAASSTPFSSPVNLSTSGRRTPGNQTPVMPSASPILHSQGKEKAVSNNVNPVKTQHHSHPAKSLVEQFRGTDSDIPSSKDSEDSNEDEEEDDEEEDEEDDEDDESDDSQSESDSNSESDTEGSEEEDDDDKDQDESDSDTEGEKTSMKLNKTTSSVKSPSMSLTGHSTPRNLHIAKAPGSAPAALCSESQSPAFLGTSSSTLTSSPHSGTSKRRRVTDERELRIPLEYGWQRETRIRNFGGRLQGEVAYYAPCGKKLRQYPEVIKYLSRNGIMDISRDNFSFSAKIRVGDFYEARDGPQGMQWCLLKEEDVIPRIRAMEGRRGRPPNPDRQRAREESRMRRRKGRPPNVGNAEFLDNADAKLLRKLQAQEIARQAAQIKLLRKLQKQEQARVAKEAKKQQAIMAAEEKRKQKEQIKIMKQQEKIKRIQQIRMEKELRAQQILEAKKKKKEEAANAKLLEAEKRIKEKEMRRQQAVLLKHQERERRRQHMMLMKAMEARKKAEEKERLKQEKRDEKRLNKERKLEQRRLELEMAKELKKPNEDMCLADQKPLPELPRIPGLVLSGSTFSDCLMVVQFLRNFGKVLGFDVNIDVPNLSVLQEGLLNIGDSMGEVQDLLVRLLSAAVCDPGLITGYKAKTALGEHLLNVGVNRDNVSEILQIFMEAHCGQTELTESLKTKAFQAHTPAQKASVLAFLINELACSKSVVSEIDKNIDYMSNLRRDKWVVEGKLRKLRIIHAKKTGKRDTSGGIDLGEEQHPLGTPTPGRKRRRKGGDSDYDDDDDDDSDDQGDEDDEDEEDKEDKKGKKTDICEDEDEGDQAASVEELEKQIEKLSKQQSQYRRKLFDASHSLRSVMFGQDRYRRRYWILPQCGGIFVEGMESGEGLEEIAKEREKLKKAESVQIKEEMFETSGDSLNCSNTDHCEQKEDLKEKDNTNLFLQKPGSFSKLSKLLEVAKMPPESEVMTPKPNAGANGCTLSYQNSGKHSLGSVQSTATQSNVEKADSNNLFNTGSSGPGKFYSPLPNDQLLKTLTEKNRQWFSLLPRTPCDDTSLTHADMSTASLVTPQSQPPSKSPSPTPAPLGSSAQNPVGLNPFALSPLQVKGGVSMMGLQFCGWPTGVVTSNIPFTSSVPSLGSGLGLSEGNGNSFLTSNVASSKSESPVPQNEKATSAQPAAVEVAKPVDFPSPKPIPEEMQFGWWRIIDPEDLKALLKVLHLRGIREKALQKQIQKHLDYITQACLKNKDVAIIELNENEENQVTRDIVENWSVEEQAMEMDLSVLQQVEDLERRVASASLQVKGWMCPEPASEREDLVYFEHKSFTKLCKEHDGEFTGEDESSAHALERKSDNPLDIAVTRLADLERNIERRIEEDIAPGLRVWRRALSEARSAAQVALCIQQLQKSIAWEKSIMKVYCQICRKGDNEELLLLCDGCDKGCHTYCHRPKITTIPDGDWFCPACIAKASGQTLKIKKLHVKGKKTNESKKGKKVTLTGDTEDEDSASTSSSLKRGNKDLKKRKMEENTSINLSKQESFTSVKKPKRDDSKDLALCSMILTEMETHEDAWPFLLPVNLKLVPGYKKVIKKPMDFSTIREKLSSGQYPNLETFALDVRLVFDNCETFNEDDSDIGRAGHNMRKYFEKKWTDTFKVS

| SMILES | activity change, negative = inhibition | Potency |
| --- | --- | --- |
| c1ccc2nc(-c3ccncc3)ccc2c1 | inactive: 8.25% |  |
| Cc1ccc(O)c(C(CC(=O)NCc2ccco2)c2ccccc2)c1 (stereo unspecified) |  | inconclusive: 89.1 µM [inhibitor, single point] |
| COC(=O)c1nn(-c2ccccc2)c(=O)cc1O |  | inconclusive: 89.1 µM [inhibitor, single point] |
| CCn1c(C)cc(/C=C2/NC(=O)N(Cc3ccccc3F)C2=O)c1C | inactive: -35.9% |  |
| Cc1cccn2c(=O)c(/C=C(\C#N)C(=O)NCc3ccco3)c(N3CCCCCC3)nc12 |  | inconclusive: 28.2 µM [inhibitor, full curve] |
| CC(C(=O)Nc1cccc([N+](=O)[O-])c1)[n+]1ccccc1 (stereo unspecified) |  | inconclusive: 70.8 µM [inhibitor, single point] |
| CC1=C(C(=O)OC2CCCCCC2)C(c2cccc(Cl)c2)CC(=O)N1 (stereo unspecified) | inactive: -2.97% |  |
| CC(=O)Nc1ccc(-n2c(C)ccc2-c2ccccc2)cc1 |  | inconclusive: 50.1 µM [inhibitor, partial curve] |
| O=C(Nc1ccc(NC(=O)c2ccccc2Cl)nc1)c1ccncc1 | inactive: -3.6% |  |
| COc1ccccc1Cc1nc2ccccc2nc1SCC(=O)NCc1ccccc1Cl | inactive: 5.73% |  |
| CN1CCc2nc3sc(C(=O)Nc4ccccc4C(F)(F)F)c(N)c3cc2C1 |  | inconclusive: 35.5 µM [inhibitor, partial curve] |
| O=c1c2ccccc2nc(-c2ccco2)n1Cc1ccccc1 |  | inconclusive: 89.1 µM [inhibitor, single point] |
| CC12CCC(C(=O)Nc3nc4ccc(Br)cc4s3)(OC1=O)C2(C)C (stereo unspecified) |  | inconclusive: 70.8 µM [inhibitor, single point] |
| O=S(=O)(c1cccc(C(F)(F)F)c1)N1CCC(c2cc(-c3cccc4ccccc34)n[nH]2)CC1 |  | inconclusive: 89.1 µM [inhibitor, single point] |
| COc1ccc(CN2CCNC(=O)C2CC(=O)NC2CCCC2)c(C)c1C (stereo unspecified) |  | inconclusive: 70.8 µM [inhibitor, single point] |
| Cc1oc2c(C)c3oc(=O)c(CCC(=O)O)c(C)c3cc2c1-c1ccccc1 |  | inconclusive: 50.1 µM [inhibitor, partial curve] |
| O=C(c1ccco1)N1CCN(C(c2ccccn2)c2nnnn2C2CCCC2)CC1 (stereo unspecified) |  | inconclusive: 79.4 µM [inhibitor, single point] |
| C/C(=N/Nc1ccc(C)cc1)C1(C)N(O)C(C)(C)C(c2ccco2)=[N+]1[O-] (stereo unspecified) |  | inconclusive: 79.4 µM [inhibitor, partial curve] |
| Cc1nc2scc(C)n2c(=O)c1S(=O)(=O)Nc1cccc(C(F)(F)F)c1 |  | inconclusive: 89.1 µM [inhibitor, single point] |
| Cc1[nH]c2ccccc2c1CCN(Cc1cccnc1)C(=S)NC(C)(C)C |  | inconclusive: 50.1 µM [inhibitor, partial curve] |
| O=C(COc1coc(CN2CCN(c3ccccc3)CC2)cc1=O)Nc1ccccc1F |  | inconclusive: 79.4 µM [inhibitor, single point] |
| COc1ccc(OC)c(C(=O)NC(CC(N)=O)c2ccc(NCCOc3ccccc3)c([N+](=O)[O-])c2)c1 (stereo unspecified) |  | inconclusive: 22.4 µM [inhibitor, single point] |
| O=[N+]([O-])c1cccc(-c2ccc(/C=N/Nc3nc(N4CCCCC4)nc(N4CCCCC4)n3)o2)c1 |  | inconclusive: 8.91 µM [inhibitor, full curve] |
| CC(=O)c1sc2nc(SCC(=O)N3CCCCC3)[nH]c(=O)c2c1C |  | inconclusive: 70.8 µM [inhibitor, single point] |

| SMILES | activity change, negative = inhibition | Potency |
| --- | --- | --- |
| Oc1ccc(/C=N/Nc2nc(N3CCCC3)nc(N3CCCC3)n2)cc1O | inactive: -22.1% |  |
| CC1Cc2ccccc2N1C(=O)CSc1ncc(-c2ccc(F)cc2)n1C (stereo unspecified) |  | active: 28.2 µM |
| c1ccc2c(Nc3ccc4c(c3)OCCO4)c3c(nc2c1)CCCC3 |  | inconclusive: 79.4 µM [inhibitor, single point] |
| O=S(=O)(Nc1nc2ccccc2nc1N1CCN(c2ccccc2)CC1)c1ccc(F)cc1 |  | inconclusive: 44.7 µM [inhibitor, partial curve] |
| O=C(O)C1NCCc2ccccc21 (stereo unspecified) |  | inconclusive: 89.1 µM [inhibitor, single point] |
| CCOC(=O)c1cccc2c1N[C@@H](c1ccc(F)cc1)[C@H]1CC=C[C@@H]21 |  | inconclusive: 8.91 µM [inhibitor, full curve] |
| Nc1ccc2nc(CCc3ccccc3)[nH]c2c1 |  | inconclusive: 79.4 µM [inhibitor, single point] |
| Cc1cc(=O)[nH]c(N/N=C/c2cccc([N+](=O)[O-])c2)n1 |  | inconclusive: 89.1 µM [inhibitor, single point] |
| COc1cccc(/C=N/NC(=O)c2cc3cc([N+](=O)[O-])ccc3s2)c1O |  | active: 22.4 µM |
| NCC(c1ccc(Cl)cc1Cl)c1c[nH]c2ccccc12 (stereo unspecified) |  | inconclusive: 17.8 µM [inhibitor, single point] |
| CSc1nnc(C)c(=O)n1COC(=O)COc1ccc(Cl)cc1 |  | inconclusive: 89.1 µM [inhibitor, single point] |
| COC(=O)c1ccc(C23CC4(C2)[C@H](CN(Cc2cccnc2)[C@@H]4c2ccccc2)C3c2ccc(Cl)nc2)cc1 (stereo partly specified) |  | inconclusive: 79.4 µM [inhibitor, single point] |
| Cc1ccc2c(c1)c(-c1csc(N)n1)c(C)n2C |  | inconclusive: 50.1 µM [inhibitor, partial curve] |
| C/C(=N\NC(=O)Cc1ccc(Cl)cc1)c1ccccc1O |  | inconclusive: 50.1 µM [inhibitor, partial curve] |
| COc1ccc2cc(C3(C)NC(=O)N(CC(=O)NCc4ccco4)C3=O)ccc2c1 (stereo unspecified) |  | inconclusive: 89.1 µM [inhibitor, single point] |
| CC1Cc2cc(S(=O)(=O)NCc3ccc(N(C)C)cc3)ccc2N1C(=O)C1CCC1 (stereo unspecified) |  | active: 35.5 µM |
| C=CCNCCOCCOc1ccccc1-c1ccccc1 |  | active: 79.4 µM |
| Cc1ccc(C=C2C(=O)c3ccccc3C2=O)s1 |  | active: 15.8 µM |
| N#Cc1sc2nc3c(c(-c4ccco4)c2c1N)CCCC3 |  | inconclusive: 89.1 µM [inhibitor, single point] |
| COc1ccc(NC(=O)Cn2cc(S(=O)(=O)Cc3ccc(F)cc3)c3ccccc32)cc1OC |  | inconclusive: 56.2 µM [inhibitor, partial curve] |
| COc1ccc(C2C(C(=O)c3ccco3)=C(O)C(=O)N2CCCn2ccnc2)c(OC)c1 (stereo unspecified) |  | active: 56.2 µM |
| O=[N+]([O-])c1ccc(CNCc2cc(Cl)ccc2O)cc1 |  | inconclusive: 89.1 µM [inhibitor, single point] |
| c1ccc(C2c3c(ccc4ccccc34)Oc3ncn4nc(-c5ccco5)nc4c32)cc1 (stereo unspecified) | inactive: -38.9% |  |
| CCC1CCCCN1S(=O)(=O)c1ccc(C(=O)Nc2nnc(C3CC3)o2)cc1 (stereo unspecified) |  | active: 50.1 µM |

| SMILES | activity change, negative = inhibition | Potency |
| --- | --- | --- |
| O=C(N/N=C/c1cccnc1)c1cc2c(ccc3ccccc32)o1 | inactive: -11.8% |  |
| Cc1c(Cl)cccc1NC(=O)Cn1cc2c(n1)CCCC2 | inactive: -1.14% |  |
| COc1ccc(N2CCN(C(=O)/C(C#N)=C/c3ccccc3)CC2)cc1 |  | active: 50.1 µM |
| O=C(COC(=O)C1CC1)Nc1ncc(Cl)cc1Cl |  | inconclusive: 89.1 µM [inhibitor, single point] |
| O=C(O)c1cccc(S(=O)(=O)Nc2cc(Cl)ccc2Cl)c1 | inactive: 0.132% |  |
| COC(=O)c1ccc(N2OC3(C)C=CC2CC3)cc1 (stereo unspecified) | inactive: 9.65% |  |
| N#Cc1cccc(OC(=O)c2ccc3c(=O)n4c(nc3c2)CCC4)c1 |  | inconclusive: 89.1 µM [inhibitor, single point] |
| O=C(O)c1cc(/C=C/C(=O)c2cc(F)ccc2O)c2c(c1)COCO2 |  | active: 50.1 µM |
| CCN(CCO)Cc1cc(=O)oc2cc3c(cc12)CCC3 | inactive: -24.8% |  |
| CCOC(=O)c1sc(NC(=O)c2c(OC)cccc2OC)nc1C | inactive: -6.22% |  |
| O=C(Nc1nccs1)C1CCN(S(=O)(=O)c2ccccc2)CC1 | inactive: 1.62% |  |
| N/C(Cc1ccc(Cl)cc1)=N\OC(=O)Cc1ccc([N+](=O)[O-])cc1 |  | inconclusive: 39.8 µM [inhibitor, full curve, poor fit] |
| CCC(C)[C@H](Nc1nc(-c2ccccc2)nc2c1oc1ccccc12)C(=O)O (stereo partly specified) |  | inconclusive: 89.1 µM [inhibitor, single point] |
| CN(C)S(=O)(=O)c1cccc(NC(=S)N/N=C/c2ccc(O)c(O)c2O)c1 |  | active: 4.47 µM |
| CCOc1ccc(-c2ncncc2-c2ccc(OC)c(OC)c2)c(O)c1 |  | inconclusive: 79.4 µM [inhibitor, single point] |
| COC(=O)C1=C(C)OC(N)=C(C#N)C1c1cc2cccc(C)c2nc1Cl (stereo unspecified) |  | active: 79.4 µM |
| O=C(O)c1cccc(-n2cccc2/C=C2/SC(=O)N(CC(=O)N3CCCC3)C2=O)c1 |  | active: 50.1 µM |
| O=C(/C=C/c1cccc([N+](=O)[O-])c1)N1CCN(S(=O)(=O)c2cccs2)CC1 |  | inconclusive: 89.1 µM [inhibitor, single point] |
| Cc1cccc(Oc2ccc3c(c2)Oc2ccccc2NC3=O)c1 |  | active: 50.1 µM |
| CCOC(=O)N1CCN(C(=O)c2cccc(OC)c2O)CC1 |  | inconclusive: 11.2 µM [inhibitor, single point] |
| CC(=O)c1ccc(NC(=O)CCc2c(C)nn(-c3ccc(N4CCCCC4)nn3)c2C)cc1 |  | inconclusive: 31.6 µM [inhibitor, full curve, poor fit] |
| CCOC(=O)c1c(NC(=O)CSc2nnc(CNc3ccc(OC)cc3)n2C)sc(C)c1C |  | active: 44.7 µM |
| O=C1/C(=C/c2ccc(N3CCOCC3)o2)SC(=Nc2ccccc2)N1CCc1c[nH]c2ccccc12 |  | inconclusive: 44.7 µM [inhibitor, partial curve] |
